Several values for one entry are separate records, joined by “and”; a condition that tells them apart may be missing. Equal entries are not always repeated. In all, about 350,000 compounds went through this assay and about 31,000 (8.9%) were called active. Inconclusive means that the source gave no clear call. Such entries were picked first, then a sample of the others. Calls follow the shape of the dose curve; as a rule, active = well fitted inhibition curve with a large enough effect; inconclusive = small, poorly fitted or top-dose-only effect; inactive = no such curve, though single readings can be large or run the other way. Where the call is inconclusive, the potency comes from a doubtful curve fit.
target: Histone-lysine N-methyltransferase EHMT2 (Homo sapiens) (UniProt Q96KQ7); assay: qHTS Assay for Inhibitors of Histone Lysine Methyltransferase G9a; details: G9a H3K9 monomethylation, AlphaScreen, 2 h; activity, negative = inhibition: at 59 µM (top of the series) unless noted; also: nearly all actives have a fitted effect of over 75% in size
Chain of UniProt Q96KQ7 (Q96KQ7 whole entry, looked up): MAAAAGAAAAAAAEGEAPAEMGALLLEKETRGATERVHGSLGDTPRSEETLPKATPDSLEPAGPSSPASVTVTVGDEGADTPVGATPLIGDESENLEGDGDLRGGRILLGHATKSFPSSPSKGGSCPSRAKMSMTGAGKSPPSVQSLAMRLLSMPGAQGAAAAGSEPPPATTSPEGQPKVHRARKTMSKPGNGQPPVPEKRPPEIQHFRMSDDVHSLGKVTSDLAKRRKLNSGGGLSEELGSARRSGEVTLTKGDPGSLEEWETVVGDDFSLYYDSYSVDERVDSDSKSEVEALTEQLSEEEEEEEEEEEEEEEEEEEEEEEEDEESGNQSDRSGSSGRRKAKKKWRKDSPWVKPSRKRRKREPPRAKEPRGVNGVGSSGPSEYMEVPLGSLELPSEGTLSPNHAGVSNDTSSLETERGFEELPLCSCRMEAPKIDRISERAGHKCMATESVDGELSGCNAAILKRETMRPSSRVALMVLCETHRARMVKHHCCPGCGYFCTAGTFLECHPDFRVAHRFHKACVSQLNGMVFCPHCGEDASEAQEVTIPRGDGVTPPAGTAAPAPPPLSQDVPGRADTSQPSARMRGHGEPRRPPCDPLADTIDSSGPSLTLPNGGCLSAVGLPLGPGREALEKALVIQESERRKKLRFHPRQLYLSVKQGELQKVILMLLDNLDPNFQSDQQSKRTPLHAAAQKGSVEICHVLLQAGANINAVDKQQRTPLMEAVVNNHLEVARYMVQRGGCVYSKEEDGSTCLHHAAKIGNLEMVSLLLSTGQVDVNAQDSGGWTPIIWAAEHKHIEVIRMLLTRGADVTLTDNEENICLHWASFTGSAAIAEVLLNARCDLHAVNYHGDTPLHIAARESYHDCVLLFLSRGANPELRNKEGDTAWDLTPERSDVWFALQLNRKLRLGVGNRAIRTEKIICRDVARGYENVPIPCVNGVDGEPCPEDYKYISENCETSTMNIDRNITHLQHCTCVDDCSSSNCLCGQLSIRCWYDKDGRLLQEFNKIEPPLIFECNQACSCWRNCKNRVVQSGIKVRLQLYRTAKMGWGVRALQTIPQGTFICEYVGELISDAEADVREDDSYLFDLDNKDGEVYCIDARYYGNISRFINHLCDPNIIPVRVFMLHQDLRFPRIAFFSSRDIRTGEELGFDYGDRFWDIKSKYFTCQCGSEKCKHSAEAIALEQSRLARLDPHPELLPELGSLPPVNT
Procedure, shortened: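 Methyltransferase reactions run at room temperature for 2 h (20 nM enzyme, 500 nM biotin-H3K9 peptide, 20 uM SAM) after a 15 min compound preincubation; product detected by AlphaScreen beads and anti-H3K9me1 antibody.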
% is scaled to controls: 0 for no effect and ±100 for the full control effect; potency is read from the fitted curve at half-maximal effect; tags tell the direction and shape of the fitted curve.

SMILES | Potency | activity, negative = inhibition
COc1cc(C2NC(=O)C(C#N)=C(S)N2c2ccc(C)cc2)ccc1OC(C)C (stereo unspecified) | inconclusive: 25.1 µM [inhibitor, partial curve, poor fit] | –
COc1ccc(-n2c(Cc3cccn3C)nnc2SCC(=O)NCc2ccc(F)cc2)cc1 | active: 44.7 µM | –
COc1ccc(N/C=C2/CCCCC2=O)cc1 | – | inconclusive: -65.3% [inhibitor] [at 12.7 µM]
Cc1cc(C)cc(-n2c3nc4ccccc4nc3c3c(=O)n(Cc4ccco4)cnc32)c1 | – | inconclusive: -79.9% [inhibitor]
Cc1cc(C)nc(Nc2cccc(C(F)(F)F)c2)n1 | active: 50.1 µM | –
CCN(C(=O)COC(=O)C1CCN(S(=O)(=O)c2ccc3c(c2)OCCO3)CC1)C1CCCCC1 | inconclusive: 79.4 µM [inhibitor, single point] | –
Cc1ccc(OCC(=O)N(C)CC(=O)Nc2ccccc2Cl)c([N+](=O)[O-])n1 | inconclusive: 31.6 µM [inhibitor, single point] | –
COc1ccc(OCc2cc(C(=O)N(C)Cc3nccn3C)no2)c2ccccc12 | active: 35.5 µM | –
CC(C)(C)n1nc2c(c1NC(=O)Cc1cccc3ccccc13)CS(=O)(=O)C2 | inactive | –
COc1cc(/C=N/NC(=O)CCn2nnc3ccccc32)ccc1O | inconclusive: 89.1 µM [inhibitor, single point] | –
O=C(CCSc1ccccc1)NCCN1CCOCC1 | inconclusive: 15.8 µM [inhibitor, single point] | –
O=C(Cn1cnc2c(cnn2-c2ccccc2Cl)c1=O)N1CCc2ccccc21 | inconclusive: 89.1 µM [inhibitor, partial curve, poor fit] | –
Cc1ccc(N2CC(C(=O)Nc3nnc(SCC(=O)N4CCOCC4)s3)CC2=O)cc1 (stereo unspecified) | active: 44.7 µM | –
COc1ccccc1N1CC=C(c2cccc([N+](=O)[O-])c2)NC1=O | active: 39.8 µM | –
C=CC(N)CCC(=O)O (stereo unspecified) | – | inactive: 41.9% [at 12.7 µM]
CCCCCC(=O)Nc1c(-c2cccs2)c(=O)c2ccccc2n1C | inactive | –
CC(C)N1CCc2c(sc(NC(=O)c3ccc([N+](=O)[O-])o3)c2C(N)=O)C1 | inconclusive: 79.4 µM [inhibitor, single point] | –
O=C(Nc1ccc(-c2nc3ccccc3s2)c(O)c1)C1=COCCO1 | inconclusive: 35.5 µM [inhibitor, single point] | –
CCOc1ccc(NC(=S)Nc2ccc3nsnc3c2)cc1 | inconclusive: 1.78 µM [inhibitor, partial curve, poor fit] | –
Cc1ccc(CNC(=O)c2c(O)nc3ccccn3c2=O)cc1 | inconclusive: 25.1 µM [inhibitor, partial curve, poor fit] | –
Cc1cc(O)c2c(-c3ccccc3)cc(=O)oc2c1 | inconclusive: 10 µM [inhibitor, partial curve, poor fit] | –
COc1cc(CCC(=O)Nc2c(C(=O)N3CCN(c4ccccc4)CC3)oc3ccccc23)on1 | inconclusive: 79.4 µM [inhibitor, single point] | –

SMILES | Potency | activity, negative = inhibition
COc1ccc(S(=O)(=O)Nc2cc3c4c(c2)CC(=O)N4CCC3)cc1C | inconclusive: 89.1 µM [inhibitor, partial curve, poor fit] | –
CC(=O)Nc1ccc(SCCC2CCCCN2C)cc1 (stereo unspecified) | inconclusive: 89.1 µM [inhibitor, single point] | –
COc1cccc(/C=C(/C#N)c2nc3ccccc3[nH]2)c1OC(C)C(=O)O (stereo unspecified) | inconclusive: 89.1 µM [inhibitor, single point] | –
CCOc1ccc(NC(=S)N(CCc2ccncc2)C(C)C)cc1 | inconclusive: 70.8 µM [inhibitor, single point] | –
Cc1ccc(NC(=O)CCCn2c(=O)oc3ccccc32)c(O)c1 | inactive | –
CCCNC(=O)Cn1c(=O)/c(=C\c2ccc(-c3cccc([N+](=O)[O-])c3)o2)s/c1=C\C(=O)C(C)(C)C | inconclusive: 15.8 µM [inhibitor, partial curve, poor fit] | –
CC(OC(=O)c1cc(O)c2ccccc2c1O)C(=O)Nc1ccc(C(N)=O)cc1 (stereo unspecified) | active: 7.08 µM | –
COc1ccccc1CCC(=O)OCC(=O)Nc1cc(C)nn1-c1ccccc1 | inconclusive: 25.1 µM [inhibitor, single point] | –
CCOC(=O)c1c(-c2ccc(C)o2)csc1NC(=S)NC(=O)c1cccs1 | inconclusive: 20 µM [inhibitor, single point] | –
COC(=O)c1[nH]c2ccc(C)cc2c1NC(=O)CN1CCN(c2ccccc2)CC1 | – | inconclusive: -52.9% [inhibitor]
COc1ccc(CCNC(=O)c2cnc3ccc(C)cn3c2=O)cc1OC | inactive | –
Cc1cc(C)c2[nH]c(=O)c(CN(Cc3ccco3)C(=O)C3CCCO3)cc2c1 (stereo unspecified) | inconclusive: 39.8 µM [inhibitor, single point] | –
Cc1ccc(NC2=NCC(=O)N2c2ccc3c(c2)OCCO3)c(C)c1 | inconclusive: 31.6 µM [inhibitor, single point] | –
CCn1c(SCC(=O)N2CCN(c3ccccc3)CC2)nnc1-c1ccncc1 | active: 1.78 µM | –
O=C(Nc1nnc(-c2ccc(Cl)cc2)o1)Nc1ccccc1Cl | – | inactive: 11.3% [at 2.33 µM]
O=C(NC(=S)Nc1ccc2c(c1)OCCO2)c1ccccc1F | active: 31.6 µM | –
COc1cccc(CC(=O)Nc2ccccc2N2CCCC2)c1 | inconclusive: 56.2 µM [inhibitor, single point] | –
CN(C)c1ccc(NC(=O)CN2CCC(N3CCCCC3)CC2)cc1 | active: 2.24 µM | –
N#CC(c1ccc(O)cc1)c1ncc(C(F)(F)F)cc1Cl (stereo unspecified) | inconclusive: 0.316 µM [inhibitor, full curve, poor fit] | –
CS(=O)(=O)c1nc(-c2ccc(F)cc2)cc(C(F)(F)F)n1 | active: 44.7 µM | –
COc1cc(S(=O)(=O)Nc2ccc(C)cc2)ccc1N=Cc1c(C)c(C#N)c(=O)n(C)c1O | inconclusive: 56.2 µM [inhibitor, single point] | –
COc1ccc(Cl)cc1-c1ccc(C(=O)O)o1 | inconclusive: 31.6 µM [inhibitor, partial curve, poor fit] | –

SMILES | Potency | activity, negative = inhibition
Cc1ccc(CC(=O)Nc2nc3ccccc3[nH]2)cc1C | inconclusive: 39.8 µM [inhibitor, full curve, poor fit] | –
C#CCOCCOCCOCCNc1nc(N2CCOCC2)nc(N2CCN(C(=O)[C@H](Cc3cc4ccccc4[nH]3)n3cc([C@@H](N)Cc4ccc(O)cc4)nn3)CC2)n1 | – | inconclusive: -74.9% [inhibitor]
CC(/C=C/c1ccccc1)=N/NC(=O)CNC(=O)c1ccccc1F | inconclusive: 89.1 µM [inhibitor, partial curve, poor fit] | –
O=C(NCc1cccnc1)c1cc2ccccc2oc1=O | active: 50.1 µM | –
O=S(=O)(c1ccc2ccccc2c1)N1CCN(CCO)CC1 | inconclusive: 63.1 µM [inhibitor, partial curve, poor fit] | –
Cn1c(=O)c2c(O)cc(=O)[nH]c2n(-c2ccccc2)c1=O | inconclusive: 89.1 µM [inhibitor, single point] | –
Oc1ccc2ccccc2c1CN1CCN(c2ccccc2F)CC1 | active: 28.2 µM | –
CCOC(=O)c1cc(-c2ccc(OC)cc2)n(CCC(=O)NCc2ccccc2OC)c1C | inconclusive: 28.2 µM [inhibitor, partial curve, poor fit] | –
CCOc1ccc(NC(=O)CSc2ncn[nH]2)cc1 | inactive and inconclusive: 1.12 µM [inhibitor, full curve, poor fit] | –
Oc1c(Cl)cc(Cl)cc1C1=NNC(c2ccc(Cl)cc2)C1 (stereo unspecified) | inconclusive: 20 µM [inhibitor, single point] | –
CCC(C)NC(=O)CSc1nc2ccsc2c(=O)n1-c1ccc(OC)cc1 (stereo unspecified) | inconclusive: 79.4 µM [inhibitor, partial curve] | –
COc1ccc(NC(=O)CC2Oc3ccc(C)cc3NC2=O)cc1 (stereo unspecified) | inconclusive: 89.1 µM [inhibitor, single point] | –
COc1ccc(S(=O)(=O)N2CCC3(CC2)OCCN3S(=O)(=O)c2cccs2)cc1OC | inconclusive: 56.2 µM [inhibitor, partial curve, poor fit] | –
O=c1cc(-c2ccccc2)nc2cc(-c3ccco3)[nH]n12 | inconclusive: 50.1 µM [inhibitor, partial curve] | –
NS(=O)(=O)c1ccc(NC(=S)Nc2ccc(OCc3ccccc3)cc2)cc1 | inconclusive: 44.7 µM [inhibitor, partial curve, poor fit] | –
COc1ccc(S(=O)(=O)Nc2ccc(Oc3ncccn3)c(Cl)c2)cc1 | inactive | –
CCn1ccnc1CN(C)Cc1cn(-c2ccccc2)nc1-c1ccc(OC)cc1F | inconclusive: 17.8 µM [inhibitor, partial curve, poor fit] | –
COc1ccc(N2CCCC2)c(NC(=O)c2ccc(Br)o2)c1 | active: 8.91 µM | –
Cc1ccc(NC(=O)C[n+]2cc(-c3ccccc3)n3c2CCC3)cc1 | inconclusive: 25.1 µM [inhibitor, full curve] | –
CC(C)(C)c1ccccc1OCCCCCn1ccnc1 | inconclusive: 8.91 µM [inhibitor, full curve, poor fit] | –
Cc1ccc(C)c(NCC(=O)c2ccc(Cl)cc2)c1 | inconclusive: 3.98 µM [inhibitor, full curve, poor fit] | –
O=C1C2CCCCN2C(=O)N1CCCCN1CCN(c2cccc(Cl)c2)CC1 (stereo unspecified) | inconclusive: 89.1 µM [inhibitor, single point] | –
